# Assay results: the supplement of paper PMC12217912
# The list shows a part of the results. Sequences were assembled here from the parent chain. Values near 0.05 are background.
# B1: TEV protease; numbered along this chain (parent)
# chain: MGESLFKGPRDYNPISSSICHLTNESDGHTTSLYGIGFGPFIITNKHLFRRNNGTLVVQSLHGVFKVKDTTTLQQHLVDGRDMIIIRMPKDFPPFPQKLKFREPQREERICLVTTNFQTKSMSSMVSDTSCTFPSGDGIFWKHWIQTKDGQCGSPLVSTRDGFIVGIHSASNFTNTNNYFTSVPKNFMELLTNQEAQQWVSGWRLNADSVLWGGHKVFMVKPEEPFQPVKEATQL
# Variants of: B1
# Assay: raw area under fraction-flipped curve 0-4 h after induction (AUC4h, not background-subtracted), DNA-recorder readout of cleavage of the substrate (dimensionless); higher = more cleavage of the substrate by the protease variant
# Conditions: temperature: 34 °C; time window: 0-4 h after rhamnose induction
# Procedure: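 In vivo DNA recorder in E. coli TOP10(DE3) ΔrhaA at 34 °C. Each TEVp single-site mutant (parent TEVp 0) is paired with a single-site variant of the 7-mer TEVs (canonical ENLYFQ|S). The substrate sits between flexible linkers in a Bxb1-sfGFP-TEVs-SsrA fusion, so cleavage stabilises Bxb1 and speeds flipping of a recombination array, read by NGS. The value is the raw area under the fraction-flipped curve over 0-4 h after rhamnose induction (AUC4h), with ≥20 reads per time point. It is not background-subtracted; inactive controls average about 0.047.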
# 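Further: Bxb1 expression induced with 0.2% (w/v) L-rhamnose at OD600 near 0.5, cultures sampled hourly, flipped fraction per protease–substrate barcode pair counted by paired-end Illumina sequencing.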
Variant,area with substrate ANLYFQS,area with substrate CNLYFQS,area with substrate FNLYFQS,area with substrate HNLYFQS,area with substrate INLYFQS,area with substrate KNLYFQS,area with substrate NNLYFQS,area with substrate PNLYFQS,area with substrate QNLYFQS,area with substrate WNLYFQS,area with substrate YNLYFQS,area with substrate DNLYFQS,area with substrate GNLYFQS,area with substrate LNLYFQS,area with substrate RNLYFQS,area with substrate TNLYFQS,area with substrate VNLYFQS,area with substrate MNLYFQS,area with substrate SNLYFQS
I164W,0.0726,0.0541,0.07,0.0347,0.0489,0.0555,0.0373,0.0245,0.0547,0.0551,0.0401,–,–,–,–,–,–,–,–
I164Y,0.0525,–,0.0541,0.0519,0.064,0.0635,–,0.0594,–,0.0487,0.0496,0.0652,0.0541,0.0542,0.0484,0.0515,0.0499,–,–
I164T,0.061,0.0561,0.0547,0.0579,0.0539,0.0572,–,0.0517,–,0.0533,0.0506,–,0.0434,0.0589,–,0.06,–,0.0594,0.0576
I164P,0.0411,0.0576,–,0.0497,0.0597,0.0575,0.0524,0.0564,0.0678,0.045,0.0414,–,–,0.0506,–,0.0524,–,0.0454,–
F140A,0.0256,0.0655,–,0.0398,–,–,–,0.06,0.0643,0.083,0.043,–,–,0.0394,–,–,–,0.0435,–
F140E,0.0682,0.0569,0.0803,0.0609,0.0505,0.0684,0.0523,0.0557,0.0593,0.0648,0.0562,–,–,0.0643,0.042,0.0598,0.0625,–,0.0551
F163L,0.0533,0.0678,–,0.0621,0.0642,0.0716,–,0.0728,–,0.0811,–,–,0.047,–,–,0.0776,–,–,0.0852
V165F,0.0538,0.0271,–,0.0497,0.0326,0.0563,0.0482,–,0.0553,0.0407,0.0457,–,–,–,–,0.0445,–,0.0522,0.0658
S135Y,0.0589,–,0.0564,0.0646,0.0585,0.0619,0.06,0.0578,0.056,0.0594,0.0587,0.0633,0.055,0.0686,–,0.0515,0.0592,–,0.0641
M125K,0.0671,0.0665,0.0657,0.0643,0.0586,0.0796,–,0.048,–,0.0626,–,–,–,0.0704,–,0.0566,0.0674,0.072,–
S127Y,0.065,0.0807,–,–,–,–,0.0692,–,–,0.0541,0.0651,–,–,0.0571,–,0.0648,–,0.0689,0.0804
S127A,0.0768,0.0716,0.0609,0.0697,–,0.0703,–,0.0716,0.0533,0.0516,–,–,–,0.0864,–,0.0706,–,0.0694,0.0705
S127H,0.0677,0.0809,0.0584,0.0572,0.0712,0.0729,0.0717,0.0691,0.0486,0.056,0.0615,–,–,–,0.0556,0.0595,0.0372,0.0735,0.0785
F133Q,0.0698,0.0708,–,–,0.0741,0.0682,–,0.0812,–,–,–,–,–,–,–,0.0664,–,–,–
F133Y,0.0681,–,0.0809,0.0648,–,0.066,0.0576,0.0739,0.0705,0.0564,0.0562,0.0767,–,0.0717,–,0.0779,–,0.0749,0.0699
Q151P,0.0561,–,–,–,0.054,–,–,0.0608,–,0.038,0.0562,0.0579,–,0.0587,–,0.0531,–,–,0.0525
Q151L,0.0625,0.0482,0.0385,0.0623,–,–,–,0.0616,–,0.0669,–,–,–,–,–,0.059,0.0411,–,–
Q151C,0.0626,0.0581,–,0.0714,0.0727,–,0.068,0.0756,0.0549,0.0627,–,–,0.0629,–,0.0695,0.0449,–,–,0.0048
Q151W,0.0475,0.0586,0.0582,0.0624,0.059,0.068,0.0536,0.0654,–,0.063,0.0549,–,0.0605,0.0583,–,0.0628,–,–,0.0557
Q151I,0.0759,–,0.0597,–,0.0669,–,–,0.0806,0.0536,0.055,0.0603,0.0868,0.0563,0.0647,0.0456,0.0714,–,–,0.0699
C131S,0.0604,0.0423,0.0634,–,–,–,–,–,–,0.0484,–,–,–,–,–,–,–,–,–
C131T,0.0847,0.0784,0.0516,0.078,0.0507,–,–,0.0685,–,0.0836,–,–,–,0.0585,–,–,–,–,0.0776
D137C,0.0543,0.0659,–,0.0689,–,0.0702,0.065,–,–,0.0587,0.0904,–,0.0722,–,–,0.0666,–,–,0.08
D137K,0.0609,0.0593,0.0643,0.0631,–,0.0674,–,–,–,–,0.0687,–,–,0.0636,–,0.0539,–,–,–
L156D,0.0383,0.0453,–,0.0475,0.0568,0.0571,0.0561,–,–,0.0543,0.0391,–,0.0455,0.0586,–,0.0533,0.0576,0.0523,–
L156V,0.0958,–,0.058,0.0402,0.0649,0.069,0.0602,0.0795,–,0.061,0.0641,0.0626,0.0636,0.0631,–,0.0651,0.0722,0.0711,0.0603
L156I,0.0503,–,–,0.051,–,–,0.0606,0.0846,–,0.0647,0.0651,0.0699,0.0595,0.058,0.0586,0.0763,0.0772,–,0.0575
L156M,0.0584,–,–,0.0695,0.0654,0.0716,0.0582,–,–,0.0604,0.0686,0.0903,0.0836,0.0628,–,0.0685,0.0615,0.0266,–
K148F,0.0783,0.0623,–,0.0681,–,–,–,–,0.0724,0.0654,–,–,0.0698,0.0653,–,0.0819,–,0.0619,0.0768
K148I,0.055,–,0.0708,0.0634,–,–,0.0582,0.067,–,–,–,0.0642,–,–,0.0605,–,–,–,–
